Where two headings read alike, the source gives them in different places.

Usually Ki stands for the equilibrium dissociation constant of an inhibitor or competing ligand from its target.

For this test, the target named is BRD4 (BDII_E352-M457) (Homo sapiens, UniProt O60885). Kind of test: TR-FRET bromodomain binding assay, BRD4 BDII. As for the experimental part:
A time-resolved fluorescence resonance energy transfer (TR-FRET) assay was used to determine the affinities of compounds of the Examples listed in Table 1 for each bromodomain of BRD4. […] An Alexa647-labeled BET-inhibitor was used as the fluorescent probe in the assay.
Compound dilution series were prepared in DMSO via an approximately 3-fold serial dilution. Compound dilutions were added directly into white, low-volume assay plates (Perkin Elmer Proxiplate 384 Plus #6008280) using a Labcyte Echo in conjunction with Labcyte Access and Thermo Multidrop CombinL robotics. Compounds were then suspended in eight microliters (μL) of assay buffer (20 mM Sodium Phosphate, pH 6.0, 50 mM NaCl, 1 mM Ethylenediaminetetraacetic acid disodium salt dihydrate, 0.01% Triton X-100, 1 mM DL-Dithiothreitol) containing His-tagged bromodomain, Europium-conjugated anti-His antibody (Invitrogen PV5596) and Alexa-647-conjugated probe.
After a one-hour equilibration at room temperature, TR-FRET ratios were determined using an Envision multilabel plate reader (Ex 340, Em 495/520).
TR-FRET data were normalized to the means of 24 no-compound controls (“high”) and 8 controls containing 1 μM un-labeled probe (“low”). Percent inhibition was plotted as a function of compound concentration and the data were fit with the 4 parameter logistic equation to obtain IC50s. Inhibition constants (Ki) were calculated from the IC50s, probe Kd and probe concentration.
Compound dilution series for Compounds A-E were prepared in DMSO via an approximately 3-fold serial dilution from 0.47 mM to 7.8 nM.
Compound dilutions were added directly into white, low-volume assay plates (Perkin Elmer Proxiplate 384 Plus #6008280) using a Labcyte Echo in conjunction with Labcyte Access and Thermo Multidrop CombinL robotics. Compounds were then suspended in eight microliters (μL) of assay buffer (20 mM Sodium Phosphate, pH 6.0, 50 mM NaCl, 1 mM Ethylenediaminetetraacetic acid disodium salt dihydrate, 0.01% Triton X-100, 1 mM DL-Dithiothreitol) containing His-tagged bromodomain, Europium-conjugated anti-His antibody (Invitrogen PV5596) and Alexa-647-conjugated probe.
The final concentration of 1× assay mixture contained 2% DMSO, 8 nM His-tagged bromodomain, 1 nM Europium-conjugated anti-His-tag antibody and 100 nM or 30 nM probe (for BDI or BDII, respectively) and compound concentration in the range of 9.19 μM-150 pM.
TR-FRET data were normalized to the means of 24 no-compound controls (“high”) and 8 controls containing 1 μM un-labeled probe (“low”). Percent inhibition was plotted as a function of compound concentration and the data were fit with the 4 parameter logistic equation to obtain IC50s. Inhibition constants (Ki) were calculated from the IC50s, probe Kd and probe concentration. Typical Z′ values were between 0.65 and 0.75. The minimum significant ratio was determined to evaluate assay reproducibility (Eastwood et al., (2006) J Biomol Screen, 11: 253-261). The MSR was determined to be 2.03 for BDI and 1.93 for BDII, and a moving MSR (last six run MSR overtime) for both BDI and BDII was typically <3.

`CC(=O)NC[C@@H]1CC[C@H](Oc2cc(=O)n(C)cc2-c2cc(C(C)(C)O)ccc2Oc2c(C)cc(F)cc2C)[C@H]1C` [Example 22, N-{[(1R,2S,3S)-3-({5-[2-(4-fluoro-2,6-dimethylphenoxy)-5-(2-hydroxypropan-2-yl)phenyl]-1-methyl-2-oxo-1,2-dihydropyridin-4-yl}oxy)-2-methylcyclopentyl]methyl}acetamide] had a Ki of 170 nM. On the same count and under the same terms, with `Cc1cc(F)cc(C)c1Oc1ccc(C(C)(C)O)cc1-c1cn(C)c(=O)cc1O[C@H]1C[C@@H](CNC(=O)OC(C)(C)C)C1` [Example 8, tert-butyl {[cis-3-({5-[2-(4-fluoro-2,6-dimethylphenoxy)-5-(2-hydroxypropan-2-yl)phenyl]-1-methyl-2-oxo-1,2-dihydropyridin-4-yl}oxy)cyclobutyl]methyl}carbamate] the figure was 17.7 nM; with `Cc1cc(F)cc(C)c1Oc1ccc(C(C)(C)O)cc1-c1cn(C)c(=O)cc1O[C@H]1CC[C@@H](C(=O)O)CC1` [Example 75, cis-4-({5-[2-(4-fluoro-2,6-dimethylphenoxy)-5-(2-hydroxypropan-2-yl)phenyl]-1-methyl-2-oxo-1,2-dihydropyridin-4-yl}oxy)cyclohexane-1-carboxylic acid], 786 nM; with `Cc1cc(F)cc(C)c1Oc1ccc(C(C)(C)O)cc1-c1cn(C)c(=O)cc1O[C@H]1CC[C@H](NC(=O)C23CC(NC(=O)OC(C)(C)C)(C2)C3)CC1` (relative stereo) [Example 72, tert-butyl (3-{[trans-4-({5-[2-(4-fluoro-2,6-dimethylphenoxy)-5-(2-hydroxypropan-2-yl)phenyl]-1-methyl-2-oxo-1,2-dihydropyridin-4-yl}oxy)cyclohexyl]carbamoyl}bicyclo[1.1.1]pentan-1-yl)carbamate], 2.68 nM. The molecule `Cc1cc(F)cc(C)c1Oc1ccc(C(C)(C)O)cc1-c1cn(C)c(=O)cc1O[C@H]1CC[C@H](N2C(=O)C3CC3C2=O)CC1` (relative stereo) [Example 129, 3-[trans-4-({5-[2-(4-fluoro-2,6-dimethylphenoxy)-5-(2-hydroxypropan-2-yl)phenyl]-1-methyl-2-oxo-1,2-dihydropyridin-4-yl}oxy)cyclohexyl]-3-azabicyclo[3.1.0]hexane-2,4-dione] yielded a Ki of 3.32 nM. Still for that read-out and setting: with `Cc1cc(F)cc(C)c1Oc1ccc(C(C)(C)O)cc1-c1cn(C)c(=O)cc1O[C@H]1C[C@@H](C(=O)O)C1` [Example 97, cis-3-({5-[2-(4-fluoro-2,6-dimethylphenoxy)-5-(2-hydroxypropan-2-yl)phenyl]-1-methyl-2-oxo-1,2-dihydropyridin-4-yl}oxy)cyclobutane-1-carboxylic acid] the figure was 58.3 nM; with `CC(=O)N1CCC(=O)N1[C@H]1CC[C@H](Oc2cc(=O)n(C)cc2-c2cc(C(C)(C)O)ccc2Oc2c(C)cc(F)cc2C)CC1` [Example 112, 4-{[trans-4-(2-acetyl-5-oxopyrazolidin-1-yl)cyclohexyl]oxy}-5-[2-(4-fluoro-2,6-dimethylphenoxy)-5-(2-hydroxypropan-2-yl)phenyl]-1-methylpyridin-2(1H)-one], 7.11 nM; with `Cc1cc(F)cc(C)c1Oc1ccc(C(C)(C)O)cc1-c1cn(C)c(=O)cc1O[C@H]1CC[C@H](NS(C)(=O)=O)CC1` [Example 46, N-[trans-4-({5-[2-(4-fluoro-2,6-dimethylphenoxy)-5-(2-hydroxypropan-2-yl)phenyl]-1-methyl-2-oxo-1,2-dihydropyridin-4-yl}oxy)cyclohexyl]methanesulfonamide], 13.3 nM. On the same count and under the same terms, with `Cc1cc(F)cc(C)c1Oc1ccc(C(C)(C)O)cc1-c1cn(C)c(=O)cc1O[C@H]1CC[C@@H](C(C)(C)O)CC1` [Example 74, 5-[2-(4-fluoro-2,6-dimethylphenoxy)-5-(2-hydroxypropan-2-yl)phenyl]-4-{[cis-4-(2-hydroxypropan-2-yl)cyclohexyl]oxy}-1-methylpyridin-2(1H)-one] the figure was 1040 nM; with `COCC(=O)N1CCC(Oc2cc(=O)n(C)cc2-c2cc(C(C)(C)O)cnc2Oc2c(C)cc(F)cc2C)CC1` [Example 26, 2′-(4-fluoro-2,6-dimethylphenoxy)-5′-(2-hydroxypropan-2-yl)-4-{[1-(methoxyacetyl)piperidin-4-yl]oxy}-1-methyl[3,3′-bipyridin]-6(1H)-one], 300 nM; with `Cc1cc(F)cc(C)c1Oc1ccc(C(C)(C)O)cc1-c1cn(C)c(=O)cc1NC1CCN(S(C)(=O)=O)CC1` [Example 9, 5-[2-(4-fluoro-2,6-dimethylphenoxy)-5-(2-hydroxypropan-2-yl)phenyl]-4-{[1-(methanesulfonyl)piperidin-4-yl]amino}-1-methylpyridin-2(1H)-one], 12.5 nM.

In the case of `Cc1cc(F)cc(C)c1Oc1ccc(C(C)(C)O)cc1-c1cn(C)c(=O)cc1O[C@H]1CC[C@H](NC(=O)C(F)(F)F)CC1` [Example 117, 2,2,2-trifluoro-N-[trans-4-({5-[2-(4-fluoro-2,6-dimethylphenoxy)-5-(2-hydroxypropan-2-yl)phenyl]-1-methyl-2-oxo-1,2-dihydropyridin-4-yl}oxy)cyclohexyl]acetamide], the Ki came out at 8.53 nM.

For the molecule `Cc1cc(F)cc(C)c1Oc1ccc(C(C)(C)O)cc1-c1cn(C)c(=O)cc1O[C@H]1CC[C@H](NC(=O)C2(C#N)CC2)CC1` [Example 85, 1-cyano-N-[trans-4-({5-[2-(4-fluoro-2,6-dimethylphenoxy)-5-(2-hydroxypropan-2-yl)phenyl]-1-methyl-2-oxo-1,2-dihydropyridin-4-yl}oxy)cyclohexyl]cyclopropane-1-carboxamide], the Ki was determined as 4.12 nM. For the molecule “methyl [trans-4-({5-[2-(4-fluoro-2,6-dimethylphenoxy)-5-(2-hydroxypropan-2-yl)phenyl]-1-methyl-2-oxo-1,2-dihydropyridin-4-yl}oxy)cyclohexyl]methylcarbamate [Example 21]”, the Ki (mean Ki, 4 nM His tagged BRD4 (BDII_E352-M457), 30 nM Alexa647 probe, Ki calculated from IC50, probe Kd and probe concentration) is 2.17 nM. `Cc1cc(F)cc(C)c1Oc1ccc(C(C)(C)O)cc1-c1cn(C)c(=O)cc1O[C@H]1CC[C@H](N2C(=O)NC(C)(C)C2=O)CC1` [Example 140, 3-[trans-4-({5-[2-(4-fluoro-2,6-dimethylphenoxy)-5-(2-hydroxypropan-2-yl)phenyl]-1-methyl-2-oxo-1,2-dihydropyridin-4-yl}oxy)cyclohexyl]-5,5-dimethylimidazolidine-2,4-dione] yielded a Ki of 5.77 nM. Same read-out and setting: with `Cc1cc(F)cc(C)c1Oc1ccc(C(C)(C)O)cc1-c1cn(C)c(=O)cc1NC1CCC(C)(O)CC1` (stereo not drawn) [Example 23, 5-[2-(4-fluoro-2,6-dimethylphenoxy)-5-(2-hydroxypropan-2-yl)phenyl]-4-[(trans-4-hydroxy-4-methylcyclohexyl)amino]-1-methylpyridin-2(1H)-one] the figure was 32.9 nM; with `Cc1cc(F)cc(C)c1Oc1ccc(C(C)(C)O)cc1-c1cn(C)c(=O)cc1O[C@H]1CC[C@H](N2C(=O)CCCC2=O)CC1` [Example 80, 1-[trans-4-({5-[2-(4-fluoro-2,6-dimethylphenoxy)-5-(2-hydroxypropan-2-yl)phenyl]-1-methyl-2-oxo-1,2-dihydropyridin-4-yl}oxy)cyclohexyl]piperidine-2,6-dione], 2.05 nM; with `CC(=O)NC[C@H]1C[C@H](Oc2cc(=O)n(C)cc2-c2cc(C(C)(C)O)ccc2Oc2c(C)cc(F)cc2C)C1` [Example 6, N-{[trans-3-({5-[2-(4-fluoro-2,6-dimethylphenoxy)-5-(2-hydroxypropan-2-yl)phenyl]-1-methyl-2-oxo-1,2-dihydropyridin-4-yl}oxy)cyclobutyl]methyl}acetamide], 7.62 nM. In the case of `COC(=O)NC[C@H]1C[C@H](Oc2cc(=O)n(C)cc2-c2cc(C(C)(C)O)ccc2Oc2c(C)cc(F)cc2C)C1` [Example 7, methyl {[trans-3-({5-[2-(4-fluoro-2,6-dimethylphenoxy)-5-(2-hydroxypropan-2-yl)phenyl]-1-methyl-2-oxo-1,2-dihydropyridin-4-yl}oxy)cyclobutyl]methyl}carbamate], the Ki is 3.11 nM.

Values taken from patent publication US20210047304A1, “Bromodomain Inhibitors” (AbbVie Inc., priority 2016, published 2021).
